Experimental data published in the RNAGym collection of RNA variant scans (doi:10.7554/elife.90254).
The source gives no read counts; variants with many changes may rest on few reads.

B1: LINE1-mini (parent)
chain: GGCAGAGCUCAACACAGCGUGGCAAAGUGGCUGUGGCUAGACUGCC

Variants of: B1
Experiment: self-cleavage, relative activity (ratio to wild type); higher = more cleavage; in vitro, sequencing; the parent is a self-cleaving ribozyme

Variant	self-cleavage
A6G A12G G27A	0.02
A6G A16U C18A A25U G27C U34C	0.1
G5U G19C G27C U38G	0
A6G A11G C15A U34A	0.03
A6C C8A C15A G44U	0.04
A6C G17A G21C A24U C37A C42U	0.05
A6G C8A C18A	0.29
G5U G27U U32G A41U	0.08
A6G C8A U28C G35U	0.03
A6C A16U U20C G33U	0.04
G5U G27A C42U U43G	0.4
G5U G19U G29U U43C	0.01
A6G A11C G22U	0.01
G5U G27U C42G	0.05
A6C C10A C13U G36A	0.05
A6C A16U U28G	0.12
G5U C18A U32C C45G C46U	0.03
A6C U9G G17A G33A G36A C42G	0
G5U G36A G40U	0.49
A6C G7A U28A	0.06
A6C U9C A14U C15A C31U G36C	0.02

Variant	self-cleavage
A6C G27C G40U G44A	0.51
A6C C15A C23A G27C U28C C46A	0.05
G5U G7A C13U G19A U20A C37A A41C	0.23
A6C G35A C37U U38A	0.04
G5U G30C G35C C42U	0.07
G5U C23U G40U	0.03
A6C G17C G33C	0.1
A6G C8A G33U	0.21
A6C U20C G21A U38G A39U	0.01
A6C G21U C31G C37G	0.02
G5U U9G C13A U32G U34G	0.03
A6C C10A G22U C45A	0.05
A6C G7C A14C G35U	0.06
A6C G22C G27U	0.04
G5U G17A U28A G36U G44C	0
A6G A41G G44A	0.01
A6G C8U A14G	0.15
A6C C10G G21A	0.05
G5U C18A G22C G30C U38G U43A	0
A6C A14U C42U	0.11
A6C G40A U43G	0.03

Variant	self-cleavage
A6C A11C G35U	0.03
G5U U9C A25C	0.02
A6C C10G C23U	0.05
A6C G7U A24U A26C G36C C37A	0.03
G5U G17U C31U U32G	0.04
A6C U20C G33A	0.02
A6C G21U C23U A39C	0.04
G5U C18A G22U C46A	0.03
G5U G21A G29U C37A	0.06
A6C G7A A14C C18G C46A	0.04
A6C A14G A24G U32G C42A	0.05
A6C G21U A24U U28G U32C	0.02
A6C C15G G22C C23A	0.03
G5U G7U C15U A25C	0.13
A6C A12C G21U A41U	0
A6C A14U C15G A16C	0.07
A6G C8U C15A G17A	0.02
A6C U9A A26U G35U	0.03
A6C U20G C31G	0.04
A6C C8G C31A	0.02
A6C C15U G17A U20A C31U G33U	0.11

Variant	self-cleavage
G5U G27U G33A G44C	0.01
A6C C10U C18U U20A G33A A39C	0
A6G A12C A24G G30A	0.01
A6C U28G G35C	0.02
A6C G17A C18G C37G	0.01
G5U G7A U28A	0.06
A6C A12G G19A C42G	0.03
A6C A14G G40A U43C	0.03
A6G A14C G17A C42G C46G	0.01
A6G A16U G22U G30A C31U C46A	0.05
A6C G27C C42A	0.12
A6C C8G U9A A12U G36A C42G	0.02
A6C A16C C23A	0.15
A6G C8G G21U	0.04
G5U U9A C10G C13U G40U C45U	0.01
G5U C23A C42G U43G G44U	0.01
A6G A12G C31U	0.06
A6C U20A G35A	0.15
A6C G7U C13A C15U	0.29
A6G C8A U34G	0.56
